Results: PubChem BioAssay AID588342 (National Center for Advancing Translational Sciences (NCATS), 2011)
The whole screen tested about 360,000 compounds, of which about 25,000 (6.9%) were called active. This list was built around the results that the source calls inconclusive (neither active nor inactive); the mix of calls is not that of the screen. Calls follow the shape of the dose curve; as a rule, active = well fitted inhibition curve with a large enough effect; inconclusive = small, poorly fitted or top-dose-only effect; inactive = flat fitted curve, though single readings scatter. Potencies beside an inconclusive call are fits to weak or partial responses and may not hold up.

What follows are molecules tested against Luciferin 4-monooxygenase (Photinus pyralis) (UniProt P08659) (assay: qHTS profiling assay for firefly luciferase inhibitor/activator using purifed enzyme and Km concentrations of substrates (counterscreen for miR-21 project)). Conditions: purified FLuc, luminescence inhibition; series mostly up to 57.5 µM; activity change, negative = inhibition: at the top concentration.
Sequence of UniProt P08659 (P08659 whole entry, looked up): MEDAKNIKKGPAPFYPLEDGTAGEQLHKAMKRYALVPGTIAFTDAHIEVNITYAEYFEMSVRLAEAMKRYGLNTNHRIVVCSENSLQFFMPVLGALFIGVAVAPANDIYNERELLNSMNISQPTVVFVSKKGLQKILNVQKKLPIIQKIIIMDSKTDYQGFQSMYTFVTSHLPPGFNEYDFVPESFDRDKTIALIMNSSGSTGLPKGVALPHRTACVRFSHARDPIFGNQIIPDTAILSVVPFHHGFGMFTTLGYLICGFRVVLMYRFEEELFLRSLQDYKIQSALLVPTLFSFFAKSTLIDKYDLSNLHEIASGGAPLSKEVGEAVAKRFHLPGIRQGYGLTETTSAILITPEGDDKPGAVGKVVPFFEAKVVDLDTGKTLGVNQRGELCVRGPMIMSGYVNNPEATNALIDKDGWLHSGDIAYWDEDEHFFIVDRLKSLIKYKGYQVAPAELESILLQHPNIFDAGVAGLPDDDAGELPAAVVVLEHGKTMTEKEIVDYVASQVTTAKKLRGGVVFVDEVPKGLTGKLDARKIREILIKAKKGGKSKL
Outline: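 Biochemical qHTS of compounds, final roughly 60 µM downward over six points, against 10 nM purified firefly luciferase using Km concentrations of substrates (10 uM D-luciferin, 10 uM ATP) in Tris acetate pH 7.5 buffer; luminescence output.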
Also: nearly all actives have a fitted effect of over 55% in size.
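For activity change, negative = inhibition in this document: plate controls were vehicle for no effect and reference inhibitor for full effect.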
Potency is read from the fitted curve at half-maximal effect; tags tell the direction and shape of the fitted curve.

With `Cc1cccc(NCc2cccc3ccccc23)n1` as the molecule, how does the Potency read?
The Potency was inconclusive: 26.9 µM [inhibitor, single point].

For `NC(=O)CC(NC(=O)c1ccccc1)c1ccc(N2CCN(c3ccc(F)cc3)CC2)c([N+](=O)[O-])c1` (stereo not drawn), which “activity change, negative = inhibition” value is on record?
The value was inactive: 1.36%.

For `COc1ccc(-c2noc(-c3cc(C)cc(C)c3)n2)cc1OC`, which Potency is on record?
The Potency was inconclusive: 30.1 µM [inhibitor, partial curve, poor fit].

How did the Potency turn out when `NC(=O)C1=C[C@H](c2ccc(Br)cc2)C[C@H](OCc2ccc(CO)cc2)O1` was run?
Its Potency is inconclusive: 16.9 µM [inhibitor, partial curve].

For `O=C(Oc1ccc(/C=N/O)cc1)c1ccccc1Cl`, which Potency is on record?
The Potency was active: 9.53 µM.

Which Potency does the source give for `CCc1nnc(NC(=O)CSc2ccc(-c3cccs3)nn2)s1` here?
The Potency was active: 10.7 µM.

For `CCOc1ccc(NC(=O)c2cc3c(C)nc4ccccc4c3o2)cc1`, which “activity change, negative = inhibition” value is on record?
Its value is inactive: -0.159%.

How did the “activity change, negative = inhibition” value turn out when `CCCCN(C(=O)c1cccc(C)c1)c1c(N)n(CCC)c(=O)[nH]c1=O` was run?
Its value is inactive: -2.38%.

How did the Potency turn out when `COC(=O)CSc1ncnc2c1sc1nc3c(cc12)COC(C)(C)C3` was run?
The Potency was inconclusive: 9.53 µM [inhibitor, partial curve].

Which Potency does the source give for `COc1ccc(N2Cc3ccccc3C2=O)cc1` here?
Its Potency is active: 3.38 µM.

How did the Potency turn out when `COC(=O)CSc1nc2cc(OC)ccc2cc1C#N` was run?
Its Potency is active: 9.53 µM.

With `CCOc1ccc(/C=C2\SC(=S)N(CCC(=O)Nc3cccc(C(=O)O)c3)C2=O)cc1` as the molecule, how does the Potency read?
The Potency was active: 2.13 µM.

For `O=C(Cn1c(=O)n(Cc2ccco2)c(=O)c2oc3ccccc3c21)Nc1ccccc1`, which “activity change, negative = inhibition” value is on record?
Its value is inactive: -2.05%.

Which “activity change, negative = inhibition” value does the source give for `Cc1cc(C)c(C)c(OCC(=O)O/N=C(\N)c2ccncc2)c1` here?
The value was inactive: 0.1%.

How did the “activity change, negative = inhibition” value turn out when `CN(C)C=NC(=O)c1cc(C(=O)c2ccccc2Cl)c[nH]1` was run?
The value was inactive: 0.764%.

`O=C(OCc1nc2ccccc2[nH]1)C12CC3CC(CC(C3)C1)C2` was tested. Which Potency did it give?
The Potency was inconclusive: 16.9 µM [inhibitor, partial curve].

Which Potency does the source give for `O=c1cccccc1NN=C1CCCCCC1` here?
Its Potency is active: 6.01 µM.

`Cc1nc(C)c(-c2ccc(SCC(=O)Nc3cccc(Cl)c3C)nn2)s1` was tested. Which Potency did it give?
The Potency was inconclusive: 21.3 µM [inhibitor, single point].

`O=C(NC1(C(F)(F)F)N=C(c2ccccc2)NC1=O)c1ccccc1` (stereo not drawn) was tested. Which “activity change, negative = inhibition” value did it give?
Its value is inactive: 8.91%.

For `COc1cc(NC(=O)c2c(F)cccc2F)nc(OC)n1`, which Potency is on record?
Its Potency is inconclusive: 42.6 µM [inhibitor, partial curve, poor fit].

With `Cc1ccc(C(=O)N/N=C/c2c(O)ccc3ccccc23)cn1` as the molecule, how does the Potency read?
Its Potency is inconclusive: 30.1 µM [inhibitor, single point].

Which Potency does the source give for `O=[N+]([O-])c1ccc(NNC(=S)Nc2ccc(F)cc2)cc1` here?
The Potency was active: 19 µM.

With `CCOC(=O)C1=C(C)n2c(s/c(=C3\C(=O)Nc4ccccc43)c2=O)=NC1c1ccc(OC)cc1` (stereo not drawn) as the molecule, how does the Potency read?
Its Potency is inconclusive: 26.9 µM [inhibitor, single point].
